# Laboratory results reported in the supplement of paper PMC8728848.
# This is one part of the list.
# B1: InvD YPIII (Yersinia pseudotuberculosis), B1JSC0 (protein)
# chain: MIKYFSFFKKPEPIVGILPNRQSHHILPTHIRRVAWGTLLLQLFIPLSVSFSPAIAAMKASKADTMVSYSSTEPYVLGSGETVAMVAKKYGITVDELKKINIYRTFSRPFTALTTGDEIDIPRKASPFSVDNNKDNRLSVENTLAGHAVAGATALSNGDVAKSGERMVRSAASNEFNNSAQQWLSQFGTARVQLNINDDFHLDGSAADVLIPLYDNEKSILFTQLGARNKDSRNTVNMGAGVRTFQGNWMYGANTFFDNDLTGKNRRIGVGAEAWTDYLKLSANNYFGITDWHQSRDFIDYNERPANGYDLRAEAYLPSYPQLGGKAMYEKYRGDDVALFGKDNRQKNPHAITAGVNYTPIPLVTIGAEHRAGKGGQNDSNINFQLNYRLGETWQSHIDPSAVAASRTLAGSRYDLVERNNHIVLDYQKQNLVRLSLPDSLAGDPFSQLSVTAQVTATHGLERIDWQSAELMAAGGVLKQTSKNGLEITLPEYQMNRTGGNSYILNAIAYDTQGNASSQASMLITVNAQKINIANSTLVAVPINIEANNSDTSVVTLTLKDDNNIPVTGQDVTFLSPLGTLSAMTDSGNGVYTATLTAGTVSGTTAVSSNINGSALDMTPATVTLNGNSGELSITHSMLVAAPVNIEANGSDTSVVTLTLRDSNNNPVTGQTVTFAGTLGTLGAVTEGSSGVYTATLTAGIMVGTSSITASVNSTALGVTPATVTLNGDSGNLSTTNSTLVAAPVNIEANSSDTSVVTLTLRDNNNNPVTGQTVVFTSTLGTLGNVTEQASGVYTATLTAGTVSGVASLSVSVGGNALGVTPATVTLNGDSGNLSTTNSTLVAAPVNIEANSSDTSVVTLTLRDNNNNPVTGQTVNFAGTLGTLGTVSEGSSGVYTTTLTAGTVAGVASLSVNVGGNALGVTPATVTLNGNSGNLSATNSTLVAAPVNIEANSSDTSVVTLTLRDNNNNPVTGQTVAFTSTLGTLGNVTEQASGVYTATLTAGTVSGVASLSVSVNSNALGVTPATVTLNGDSGNLSTTNSTLVAAPVNIEANSSDTSVVTLTLRDNNNNPVTGQTVAFTSTLGTLGNVTEQASGLYTATLTAGTVSGVASLSVNVGGNALGVTPATVTLNGDSGNLSATNSTLVAAPVNIEANSSDTSVVTLTLRDNNNNPVTGQTVAFTSTLGTLGNVTEQASGLYTATLTAGTVSGVASLSVNVGGTALGVTPATVTLNGDSGNLSTTNSTLVAAPVNIEANSSDTSVVTLTLRDNNNNPVTGQTVAFTSTLGTLGNVTEQASGLYTATLTAGTVSGVASLSVSVNSTALGVTPATVTLNGDSGNLSTTNSTLVAAPVNIEANSSDTSVVTLTLRDNNNNPVTGQTVAFTSTLGTLGNVTEQASGVYTATLTAGTVAGVASLSVNVGGNALGVTPATVTLNGDSGNLSTTNSTLVAAPVNIEANSSDTSVVTLTLRDNNNNPVTGQTVAFTSTLGTLGNVTEQASGVYTATLTAGTVSGVASLSVSVGSSALGVTPATVTLNGDSGNLSTTNSTLVAAPVNIEANNSDTSVVTLTLRDNNNNPVTGQTVAFTSTLGTLGNVTEQASGVYTATLTAGTVSGVASLSVSVNSNALGVTPATVTLNGDSGNLSTTNSTLVAAPVNIEANSSDTSVVTLTLRDNNNNPVTGQTVVFTSTLGTLGNVTEQASGLYTATLTAGTVSGVASLSVSVGGNALGVTGNITLAPGALDAARSILAVNKPSINADDRIGSTITFTAQDAQGNAITGLDIAFMTDLENSQIMTLVDHNDGTYTANINGTQTGIANIAVQSSGATIAGLAATMVTITPGAWNTTQATPVMTVALPITTCQSSSGVYKRYYIGIVTHELYDNYGNEISGILTYNLGAGRYTTVTSQNSSVSGSNGLTRRSNSPVSHFILTSDAYTSQAACYAERIANVNVTITVTAITDDFKTSAVNKVFILGTGSN
# Experiments:
# Assay in all cases: glycan array binding signal (z-score within array); higher = stronger binding
# Settings in all cases: glycan notation: IUPAC condensed, linker removed
# [1] = target: Fuc(a1-2)Gal(b1-4)GlcNAc(b1-3)Gal(b1-4)GlcNAc(b1-2)Man(a1-3)[Fuc(a1-2)Gal(b1-4)GlcNAc(b1-3)Gal(b1-4)GlcNAc(b1-2)Man(a1-6)]Man(b1-4)GlcNAc(b1-4)GlcNAc
# Method in brief: (§1)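 The binding signal is a Z-score computed within each array and averaged over linkers. Arrays of the same protein sequence at different concentrations or buffers were also averaged together. Data originate from 3228 arrays in the Consortium for Functional Glycomics database, kept only where the protein sequence was available.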
# [2] = target: Fuc(a1-2)Gal(b1-4)GlcNAc(b1-3)Gal(b1-4)GlcNAc(b1-3)Gal(b1-4)GlcNAc
# Method in brief: as §1
# [3] = target: Fuc(a1-2)Gal(b1-4)GlcNAc(b1-3)GalNAc
# Method in brief: as §1
# [4] = target: Fuc(a1-2)Gal(b1-4)GlcNAc(b1-3)[Fuc(a1-2)Gal(b1-4)GlcNAc(b1-6)]GalNAc
# Method in brief: as §1
# [5] = target: Fuc(a1-2)Gal(b1-4)GlcNAc(b1-3)[Fuc(a1-3)[Gal(b1-4)]GlcNAc(b1-6)]Gal(b1-4)Glc
# Method in brief: as §1
# [6] = target: Fuc(a1-2)Gal(b1-4)GlcNAc(b1-6)GalNAc
# Method in brief: as §1
# [7] = target: Fuc(a1-2)Gal(b1-4)GlcNAc6S
# Method in brief: as §1
# [8] = target: Fuc(a1-2)Gal(b1-4)[Fuc(a1-3)]GlcNAc
# Method in brief: as §1
# [9] = target: Fuc(a1-2)Gal(b1-4)[Fuc(a1-3)]GlcNAc(b1-2)Man(a1-3)[Fuc(a1-2)Gal(b1-4)[Fuc(a1-3)]GlcNAc(b1-2)Man(a1-6)]Man(b1-4)GlcNAc(b1-4)[Fuc(a1-6)]GlcNAc
# Method in brief: as §1
# [10] = target: Fuc(a1-2)Gal(b1-4)[Fuc(a1-3)]GlcNAc(b1-2)[Fuc(a1-2)Gal(b1-4)[Fuc(a1-3)]GlcNAc(b1-4)]Man(a1-3)[Fuc(a1-2)Gal(b1-4)[Fuc(a1-3)]GlcNAc(b1-2)Man(a1-6)]Man(b1-4)GlcNAc(b1-4)GlcNAc
# Method in brief: as §1
# [11] = target: Fuc(a1-2)Gal(b1-4)[Fuc(a1-3)]GlcNAc(b1-3)Gal(b1-4)[Fuc(a1-3)]GlcNAc
# Method in brief: as §1
# [12] = target: Fuc(a1-2)Gal(b1-4)[Fuc(a1-3)]GlcNAc(b1-3)Gal(b1-4)[Fuc(a1-3)]GlcNAc(b1-3)Gal(b1-4)[Fuc(a1-3)]GlcNAc
# Method in brief: as §1
# [13] = target: Fuc(a1-2)Gal(b1-4)[Fuc(a1-3)]GlcNAc(b1-3)GalNAc
# Method in brief: as §1
# [14] = target: Fuc(a1-2)Gal(b1-4)[Fuc(a1-3)]GlcNAc(b1-3)[Neu5Ac(a2-6)Gal(b1-4)GlcNAc(b1-6)]Gal(b1-4)Glc
# Method in brief: as §1
# [15] = target: Fuc(a1-2)Gal3S(b1-4)GlcNAc
# Method in brief: as §1
# [16] = target: Fuc(a1-2)Gal6S(b1-3)GlcNAc
# Method in brief: as §1
# [17] = target: Fuc(a1-2)Gal6S(b1-3)GlcNAc6S
# Method in brief: as §1
# [18] = target: Fuc(a1-2)Gal6S(b1-4)Glc
# Method in brief: as §1
# [19] = target: Fuc(a1-2)Gal6S(b1-4)Glc6S
# Method in brief: as §1
# [20] = target: Fuc(a1-2)[Gal(a1-3)]Gal
# Method in brief: as §1
# [21] = target: Fuc(a1-2)[Gal(a1-3)]Gal(b1-3)GalNAc
# Method in brief: as §1
# [22] = target: Fuc(a1-2)[Gal(a1-3)]Gal(b1-3)GalNAc(b1-3)Gal(a1-4)Gal(b1-4)Glc
# Method in brief: as §1
# [23] = target: Fuc(a1-2)[Gal(a1-3)]Gal(b1-3)GlcNAc
# Method in brief: as §1
# [24] = target: Fuc(a1-2)[Gal(a1-3)]Gal(b1-3)GlcNAc(b1-2)Man(a1-3)[Fuc(a1-2)[Gal(a1-3)]Gal(b1-3)GlcNAc(b1-2)Man(a1-6)]Man(b1-4)GlcNAc(b1-4)GlcNAc
# Method in brief: as §1
# [25] = target: Fuc(a1-2)[Gal(a1-3)]Gal(b1-3)GlcNAc(b1-2)Man(a1-3)[Fuc(a1-2)[Gal(a1-3)]Gal(b1-3)GlcNAc(b1-2)Man(a1-6)]Man(b1-4)GlcNAc(b1-4)[Fuc(a1-6)]GlcNAc
# Method in brief: as §1
# [26] = target: Fuc(a1-2)[Gal(a1-3)]Gal(b1-3)GlcNAc(b1-3)GalNAc
# Method in brief: as §1
# [27] = target: Fuc(a1-2)[Gal(a1-3)]Gal(b1-3)GlcNAc(b1-6)GalNAc
# Method in brief: as §1
# [28] = target: Fuc(a1-2)[Gal(a1-3)]Gal(b1-4)Glc
# Method in brief: as §1
# [29] = target: Fuc(a1-2)[Gal(a1-3)]Gal(b1-4)GlcNAc
# Method in brief: as §1
# [30] = target: Fuc(a1-2)[Gal(a1-3)]Gal(b1-4)GlcNAc(b1-2)Man
# Method in brief: as §1
binder,measurement,setting,value
B1,glycan array binding signal (z-score),[1],-0.232
same,glycan array binding signal (z-score),[2],-0.136
same,glycan array binding signal (z-score),[3],-0.185
same,glycan array binding signal (z-score),[4],0.013
same,glycan array binding signal (z-score),[5],-0.336
same,glycan array binding signal (z-score),[6],0.052
same,glycan array binding signal (z-score),[7],-0.232
same,glycan array binding signal (z-score),[8],-0.265
same,glycan array binding signal (z-score),[9],-0.135
same,glycan array binding signal (z-score),[10],-0.23
same,glycan array binding signal (z-score),[11],-0.114
same,glycan array binding signal (z-score),[12],-0.284
same,glycan array binding signal (z-score),[13],0.909
same,glycan array binding signal (z-score),[14],-0.22
same,glycan array binding signal (z-score),[15],-0.256
same,glycan array binding signal (z-score),[16],-0.089
same,glycan array binding signal (z-score),[17],0.027
same,glycan array binding signal (z-score),[18],-0.158
same,glycan array binding signal (z-score),[19],0.163
same,glycan array binding signal (z-score),[20],0.067
same,glycan array binding signal (z-score),[21],-0.148
same,glycan array binding signal (z-score),[22],-0.058
same,glycan array binding signal (z-score),[23],-0.153
same,glycan array binding signal (z-score),[24],-0.164
same,glycan array binding signal (z-score),[25],-0.004
same,glycan array binding signal (z-score),[26],-0.374
same,glycan array binding signal (z-score),[27],0.218
same,glycan array binding signal (z-score),[28],-0.359
same,glycan array binding signal (z-score),[29],-0.179
same,glycan array binding signal (z-score),[30],-0.344
